# According to PMC12136788:
# This is one part of the list.
# T1: UNK ZnF1-3 (human, UniProt Q9C0B0 31-174)
# T1 sequence: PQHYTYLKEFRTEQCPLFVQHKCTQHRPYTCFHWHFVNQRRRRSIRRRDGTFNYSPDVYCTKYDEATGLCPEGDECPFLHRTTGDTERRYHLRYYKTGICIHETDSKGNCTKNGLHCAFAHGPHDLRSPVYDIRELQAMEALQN
# B1: chr6:40197388:40197389:+_ENSMUSG00000057716_ENSMUST00000061740|mus_mus|mus_mus_mus_hu_False|18_68 (ssRNA)
# RNA: GGGAGUUCUACAGUCCGACGAUCGAGACACUGGGGUGGAUUUAUUCCACCUCUGUUUGGGUGCUAGUAAGAUAGAUUGUUAUUUUGGGAUUCAUGGCCUUGAAUAUCAAGAGGGAAGGGACGAGAAUGGAAAGAGUCAAGAGUCAACAGAGGAUUGAGCAUCA
# B2: chr12:39756943:39756944:-_ENSG00000139116_ENST00000544797|hu_mus|hu_hu_hu_mus_False|38_58 (ssRNA)
# RNA: GGGAGUUCUACAGUCCGACGAUCGGUUUGGCUGUUACCCCCAAGGGAAUCCUGCAAGAGUCUUGUCAGCUUAGAGUCUCUAUAGGGGACAUGGGUGGCCCUCUUGCUCUUGUCCCCCAAGGCGCUGAUUACAUUCCCAAGAGCCAACAGAGGAUUGAGCAUCA
# B3: 108217923_108218043_487_3pUTR_ENSMUSG00000068740_ENSMUST00000090558|mouse|control|control (ssRNA)
# RNA: GGGAGUUCUACAGUCCGACGAUCUGGUGAGCCUUCCCCAGCCCUGAGCCCUGGGGCCUGUGCCAGCUUGCAAGACUGGCAUCUGAGCCGUGGGGCCUUUAAGCAAGGGUGCUCUUCAGGCAGGGUCAGCGUGCCUUGUGGAGACAACAGAGGAUUGAGCAUCA
# B4: 56335018_56335961_14662_CDS_ENSG00000151914_ENST00000244364|human|control|control (ssRNA)
# RNA: GGGAGUUCUACAGUCCGACGAUCAUCGCCAUCUCUGUCAAAGAUGUCUGCAACUGCGCUCAUCUCCAAGCGACUGGUUGGAAACUUUGAGGAAAGAAUUCCAUCAAUAAAUUCCUGCCGCGUUAUUUUCCCAUCCUGGUCUUUCAACAGAGGAUUGAGCAUCA
# B5: chr17:55757426:55757427:+_ENSG00000153944_ENST00000284073|hu_hu|motif|central (ssRNA)
# RNA: GGGAGUUCUACAGUCCGACGAUCAGAAAGCUCACGCCCACCUCCCGCCCUGCACUUCACAACUUUGCUUCAGUGUGUGCGGAAGUUCCACCUGAAAAUUCAUACAGUCUCAGAAUUGGUACCAAAAUAUGGAGAGUCAUAUUACAACAGAGGAUUGAGCAUCA
# B6: 79742064_79742518_3684_CDS_ENSG00000148606_ENST00000372371|human|control|control (ssRNA)
# RNA: GGGAGUUCUACAGUCCGACGAUCCUGCACCACCACCUUGGGGAGAUCCUCUUUCAGGAACUGCAGCACGUAGUACAUGGAGCUCUUGCUGUUCUCUCUGGGGGUGACACACACCACAGCCUCACCAUGAACAGCCACAUCACCCAACAGAGGAUUGAGCAUCA
# B7: chrX:71549762:71549763:+_ENSMUSG00000019087_ENSMUST00000019231|mus_mus|mus_mus_mus_hu_False|98_98 (ssRNA)
# RNA: GGGAGUUCUACAGUCCGACGAUCAAACCCGUGUACUCACUCUUAACAGCACAACAUCACCAGAAAACGAUAACGACAGCCAAGCAGGACAGACAGUUAAGUAGUACUUCCACACUCCCAAACUCAGGGAGCCCUAUAACCUUACAACAGAGGAUUGAGCAUCA
# B8: chr20:7962013:7962014:-_ENSG00000125827_ENST00000246024|hu_hu|FALSE|FALSE (ssRNA)
# RNA: GGGAGUUCUACAGUCCGACGAUCGAGGACUUCUGGCUUGAAAAAUAUUGCUUAGAAAACUUAAAAAAAAAUCAACAACAACUAUAUUUUGGACAAAACAAUUUUUUUUUAAUCUGUCUUGUAAAAUCCUUACUUCCUUUUGAGCAACAGAGGAUUGAGCAUCA
# B9: chr12:48362563:48362564:+_ENSG00000134291_ENST00000256686|hu_hu|hu_hu_hu_mus_False|88_88 (ssRNA)
# RNA: GGGAGUUCUACAGUCCGACGAUCUCCGUCAAGCCCUUCGAUAGACCCAUAGACUCUAAACUGUAAUCACUUUGUAUGGGGAAGGAAAAGAAACGCCAAAAACUUUCCAAAAAGCGGGGGUGGGGUGAGGCGGGAGGGGGAGGUCAACAGAGGAUUGAGCAUCA
# B10: chr7:3608459:3608460:+_ENSMUSG00000035632_ENSMUST00000038913|mus_hu|FALSE|FALSE (ssRNA)
# RNA: GGGAGUUCUACAGUCCGACGAUCGCUGGGCGUUGGGGAGCUGGGAGGAUUCACAGGCAGUGGCACCAGGAGGCUGGGUCCCCCUGAGUUGUUCCCUGAGCCUGGGGCCACGCCCCCAGCCCCCGUUGGGGCUGCCGCACUGGGCAACAGAGGAUUGAGCAUCA
# B11: chr4:57314706:57314707:+_ENSG00000128050_ENST00000264221|hu_mus|hu_hu_hu_mus_True|18_48 (ssRNA)
# RNA: GGGAGUUCUACAGUCCGACGAUCCAGAAUUUCAAAAAUAGCUUGUGUGGCAUGACUCAUGAUGUCCACUUCAGUCUGCCCUAUAACAAGUCCAGCAAAACAGAAUUUUGCAGCAAUCAGCUGUUCCUCAGACCACUGUGGAUCCAACAGAGGAUUGAGCAUCA
# B12: 130805848_130807722_2850_3pUTR_ENSMUSG00000027312_ENSMUST00000028781|mouse|control|control (ssRNA)
# RNA: GGGAGUUCUACAGUCCGACGAUCGCACUCCGAGCUGCUGCUAGUGCACUCGCCACACGCUGUCCGCAGGGCACAUGGUGUCCGGCACUGCUUGGCACUGUGGUUUGCAGGCCUUUCACAGACGCUGCCAUUGAGAGGGUUGAUCAACAGAGGAUUGAGCAUCA
# B13: chrX:20248510:20248511:+_ENSMUSG00000001924_ENSMUST00000001989|perfect_dup|FALSE|FALSE (ssRNA)
# RNA: GGGAGUUCUACAGUCCGACGAUCGACCUGACUGACGAUGCCUCCACGGAUGUAGUCGGAGAAGUUGGAGGUGUCACAGAUGCUAAAGGUAUAAGGACCCAGGACUUUGAUCUCCAUGGGCUGAUUUCCGUUGAGUUCAACCAUCAACAGAGGAUUGAGCAUCA
# B14: chr11:87793130:87793131:-_ENSMUSG00000020483_ENSMUST00000020775|mus_hu|FALSE|FALSE (ssRNA)
# RNA: GGGAGUUCUACAGUCCGACGAUCAGGAGAUGUGGCAGGGUCUCAGGCCCUGCUCCAGAAAUGAGGGAGAGAUGAACACAAACCAGACACUUUCAACUGGCCACACAGUCUGGGAGGGCAGGGGGAAACACAGAUUUGGACAUUCAACAGAGGAUUGAGCAUCA
# B15: chr1:163117127:163117128:-_ENSG00000143248_ENST00000313961|hu_mus|hu_hu_hu_mus_False|38_38 (ssRNA)
# RNA: GGGAGUUCUACAGUCCGACGAUCUGCUACAAAGGAUGUAACUCAACUCACAGGGCAACUUUUGGAAGCCUGACCAGAUGACUACUUGAUUAGCUCCUGAUAAAACUCAGAGCGCACAAAGCGGGGCAGAGAAUCCUUCUCCAUCAACAGAGGAUUGAGCAUCA
# B16: chr12:42180722:42180723:-_ENSMUSG00000036295_ENSMUST00000043884|mus_hu|mus_mus_mus_hu_True|8_8 (ssRNA)
# RNA: GGGAGUUCUACAGUCCGACGAUCCUGUAGGAGAAGAAUCUGUGUGUUAGCUGGCAAUCUGGCUGGGAAAGUUAAAAGACCUAAAUCAUUACAAUCCACUGUAGAUGCUUCCAUAUAAAUGGAUCUGGGGGUAAACCAAGGCCUCAACAGAGGAUUGAGCAUCA
# B17: chr11:51934471:51934472:+_ENSMUSG00000020349_ENSMUST00000020608|perfect_dup|motif|central (ssRNA)
# RNA: GGGAGUUCUACAGUCCGACGAUCGAUUGCAGCUUGGUUACCACAACGAUAGCAAUAGUUUGGAGCACUGAAAAUUGUUACGGCGUUCCGGUCAUGGCACCAGUUAUAUCCCUCCAUCACCAGCUGGUGAGCUCUGGACACCAACAACAGAGGAUUGAGCAUCA
# B18: chr1:28564368:28564369:+_ENSG00000130770_ENST00000335514|hu_hu|FALSE|FALSE (ssRNA)
# RNA: GGGAGUUCUACAGUCCGACGAUCCUCAAUCUCCUUCUUAUGAUGAACGAUUUCUUCUUCAUGGUGUUUUUUCAAAGCUGCCAGUUGUUCUCUACUCUGUGCUCGGAAAUAUCGUUCCUCUUCAGCCUGCUCUCUCUUUCCGAACAACAGAGGAUUGAGCAUCA
# B19: 62954625_62958383_5419_CDS_ENSG00000116641_ENST00000251157|human|control|control (ssRNA)
# RNA: GGGAGUUCUACAGUCCGACGAUCUGCUUCUUGAAGUUUACCAUGAAUUGUGGAUAGUUUCUUUGCAUCCCGAUUAGCUUCAUGAAUAGGAAUAAGUACUUUGUAAACUUCAUUAACUGCUUCAUACAUGCCAGCCAUAGAGAACAACAGAGGAUUGAGCAUCA
# B20: chr1:66461069:66461070:+_ENSMUSG00000015222_ENSMUST00000114013|mus_mus|FALSE|FALSE (ssRNA)
# RNA: GGGAGUUCUACAGUCCGACGAUCUUGACUAUCUGGUUUUACAGUGACUGGGCUUUCAUCAGCGACAGGUGGCAAACUGGUACUACUCUCUGCAAGCAUAGCCUCUGAUGGGACUGAUUUCCUCCUGGCAACCUCAGCAUCUGCCAACAGAGGAUUGAGCAUCA
# B21: chr21:34924380:34924381:+_ENSG00000159140_ENST00000381679|hu_mus|FALSE|FALSE (ssRNA)
# RNA: GGGAGUUCUACAGUCCGACGAUCCCUAGGUGAUACCCUAUAGGGAUCCGGAGUUAGUCUGUAGGGAUCAUGGCCUAAUCUAUAAGGGUCUUGUCCUAACCUGUAAGCAUCAUGGCCUAACCUGUAGGGGUCAUGACCCAACCUCAACAGAGGAUUGAGCAUCA
# B22: chr4:58499471:58499472:-_ENSMUSG00000038668_ENSMUST00000055018|mus_hu|motif|central (ssRNA)
# RNA: GGGAGUUCUACAGUCCGACGAUCAGCAUAGAGAACCACCAUUACCACAAAGGUCACCAAGUUGAAAAUGGCCCAGAAGACGGAGUAAGAGUCACUGUAGAGGGGUGCCAUGUUGGAACAAUUUUCAAUAUCACAGAUACAGUUCAACAGAGGAUUGAGCAUCA
# Target: T1, UNK ZnF1-3
# Assay: nsRBNS (natural sequence RNA bind-n-seq); RBNS binding buffer (assumed for nsRBNS): 25 mM Tris pH 7.5, 150 mM KCl, 3 mM MgCl2, 0.01% Triton X-100, 500 ug/ml BSA, 20 U/ml SUPERase-In, 4 C; UNK is unkempt and MSI1 is Musashi-1; names of the RNAs are library labels; protein concentration not given here; high values mean tight binding
row,Binder,binding signal
1,B1,1.32 enrichment R
2,B2,0.865 enrichment R
3,B3,0.498 enrichment R
4,B4,0.98 enrichment R
5,B5,1.3 enrichment R
6,B6,0.866 enrichment R
7,B7,1.88 enrichment R
8,B8,1.23 enrichment R
9,B9,2.08 enrichment R
10,B10,0.67 enrichment R
11,B11,0.999 enrichment R
12,B12,0.361 enrichment R
13,B13,0.463 enrichment R
14,B14,1.71 enrichment R
15,B15,1.12 enrichment R
16,B16,1.15 enrichment R
17,B17,1.16 enrichment R
18,B18,0.498 enrichment R
19,B19,1.01 enrichment R
20,B20,0.706 enrichment R
21,B21,0.637 enrichment R
22,B22,2.31 enrichment R
